Results published in the supplement of paper PMC3334620.
The full ranking holds about 33,000 sequences; the median of “E-score (-0.5 to 0.5)” is about -0.054, and the highest 2% start at about 0.39. The list shows a part of the results.

target: Ylr278c (UniProt Q05854); assay: PBM E-score (8-mer binding enrichment) (E-score (-0.5 to 0.5)); higher = stronger / more preferred TF binding; most listed sequences are background and not binding sites; details: protein concentration: 200 nM; construct: GST-DNA-binding domain
Method in brief: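 Universal all-10-mer Agilent arrays, fresh or stripped once, were converted to double-stranded form by primer extension. GST-tagged yeast transcription factors from PURExpress in vitro transcription/translation, full-length or DNA-binding domain only, were applied at about 100-200 nM and detected with fluorescent anti-GST. After masliner normalisation, the Universal PBM Analysis Suite scored each ungapped eight-base word together with its reverse complement by E-score.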

Sequence	PBM E-score
CTTCTGTA	-0.0808
GCGACCGA	-0.0055
AACTTCCC	-0.0615
CGAGAAAG	0.0584
AAGTTTGC	0.00605
CGAGCAGA	-0.0726
GCCGCGGC	0.406
AACGCACA	-0.0138
ATCATGGA	-0.227
ATTTCCTC	0.182
CATAGCGG	0.22
AACTCGTA	-0.162
CGCTCTGC	0.0667
CAGATTCG	-0.0164
CCAGACCC	-0.15
ACCAGATG	-0.145
CCGAGGGA	0.155
CGGGCCCC	0.239
GGTGACAC	-0.0143
AGGCGCCA	-0.0124
GGGACTCA	-0.0868
TCGCACGA	-0.169
CCTGCTCC	0.119
AATCATGA	-0.132
TCAAGACA	0.0288

Sequence	PBM E-score
AGTTTGGC	-0.072
AATAAAAG	0.0144
CCAAGTCA	-0.0673
AAAAACTT	-0.107
CAAACAGG	-0.313
CAGCGGGC	0.102
CAGCTCCA	-0.152
AATACAAG	0.0239
CCGCCCCC	0.168
CTCGAAAC	-0.13
GCTTCATA	-0.0532
AAGCAAAA	-0.0914
CACACGGG	0.126
CTGTGGGA	-0.191
GCGATAGC	-0.142
TAGAGAAA	-0.0468
CTAATTTC	0.0625
CAAATACA	0.00083
AGCTCACC	-0.00625
AGTCCGAG	0.43
ACAACCAT	0.018
AGCACTGG	-0.158
CCACTGAG	-0.208
GATCCAAA	-0.0479
TACTACTA	0.0855

Sequence	PBM E-score
ACCGCATC	0.206
CGCGATTC	0.175
AGATCACC	0.0118
ACACTCGT	-0.246
CTCATCTA	-0.0383
TACCGGGA	0.381
AGTACAGA	-0.11
AACATTAA	-0.0448
CGAATCAG	-0.203
ATACCTAG	-0.167
AAGAGGAG	-0.103
AGTGTGTA	-0.216
GAGTTATC	0.291
CACCTTTA	-0.17
GATTCAAA	-0.234
CATCCCAC	-0.135
ACTAATGG	0.0475
GATAGTGC	-0.00932
CGGCGCCA	0.214
ACGCCCCG	0.229
CCTGACAC	-0.128
CAGAGCCG	0.0202
AATGTCCA	-0.115
CAAATTCA	-0.0408
AACAAGCT	-0.0579

Sequence	PBM E-score
GTTTGGGA	-0.133
CCACCCGC	0.201
ACACCACT	-0.0175
GTAATTGA	0.06
GATTTACC	0.224
ATGGCAAT	-0.106
CTAGCTAC	-0.25
GACCGGGA	0.359
GAACTTCC	0.179
AGATATCA	-0.0909
TGGTATAA	-0.0848
CATAACGC	-0.0267
CATAGCGC	0.105
AAACGAAA	0.0454
AAGCTCAG	-0.282
TAAGCTCA	-0.161
CGTTTGAG	-0.165
CCACACGA	-0.136
AACGCGTT	0.0285
GTTCCCCA	-0.183
TAGGAACA	-0.123
GATGTGAA	-0.0613
GATATACC	0.124
AAACTTCC	0.248
CCATACCC	0.0966

Sequence	PBM E-score
CGGAGACA	0.39
CTGTGGGC	-0.15
GGCACCGA	0.0998
AGGAGGGC	-0.171
CTGGGAGC	-0.169
CCATTCCA	-0.134
AACGCGTC	0.025
AAAACATC	-0.155
CAACAGAG	-0.0308
GCGAAATA	0.056
CGCGGTGA	0.136
GAAGCAAC	-0.12
ACCCTTAT	-0.098
CCCCCGGA	0.395
AATCGCGC	0.141
AAAATTCG	0.074
AGCTTTCC	0.117
AGAGCCGA	0.158
ATCCGAAC	0.344
AGGTGAGA	-0.178
CTAGTACA	-0.131
GGCTATTA	-0.0724
CGTACCAA	-0.0391
CTCTGTGA	-0.248
ACCACGAA	-0.167

Sequence	PBM E-score
ACGTGATG	-0.305
AAACAGCG	0.0864
GTGGACGA	-0.093
ATGGCAGC	-0.138
AGGAAAAC	0.024
CTCACTGC	-0.157
GACTATTA	-0.118
TTTAAAAA	0.0255
CATGTAGG	-0.0591
ATGGATAA	-0.0876
AGGGAATC	-0.0348
ATAACGAT	-0.112
AGGGAAGA	-0.244
AGCCGTCG	0.0398
AAATACTG	-0.0665
ACTGCGCG	0.155
CACGGAGG	0.394
CATACGGG	0.0552
CAAGTATA	-0.246
ACGGCTGC	-0.0478
CTCAGGAG	-0.171
CAGACTAG	-0.375
CCATCGAA	-0.181
CACCAGTG	-0.283
CGCTGGAC	-0.0955

Sequence	PBM E-score
AGTTTCAC	-0.256
CAGTTGGG	-0.304
ATAATCGA	-0.125
AGAGTGGG	-0.102
ACTTCCGC	0.342
CAGTTCCC	0.216
ACGCATAC	0.0245
ACCGTCGC	0.25
ACATGACT	-0.245
CGCAGTCA	-0.0968
ACCTGTGG	-0.154
CTATTGCA	-0.052
GTACAAGA	-0.0981
AGCTGTTA	-0.199
AGAACCCT	-0.065
CAAATAGA	-0.0141
CTCCTAGA	-0.13
AAGCTGTA	-0.131
ATTGAGCA	-0.234
AAAATGAC	-0.0313
ACCCTCGA	-0.0827
ACATTAAT	0.0263
